Measured values reported in the RNAGym collection of RNA variant scans (doi:10.7554/elife.90254).
The source gives no read counts; variants with many changes may rest on few reads.

B1: LINE1-full (parent)
chain: UACGUAGGUGGUUUUCCCCUGAUAGUGCUAAGGGGGCCUGGAAGUUUGGACUGGGCAGAGCUCAACACAGCGUGGCAAAGUGGCUGUGGCUAGACUGCCUCUCUGGAUUCCUCGUCACUCAGCAGGGCAUCUCUGAGAGAAAUGCC

Variants of: B1
Test: self-cleavage, relative activity (ratio to wild type); higher = more cleavage; in vitro, sequencing; the parent is a self-cleaving ribozyme

| Variant | self-cleavage |
| --- | --- |
| G49U A59G A79G G89U | 0.04 |
| A2G G34A U52A U119C U143C | 0.98 |
| A78G A136G U143C | 1.47 |
| A2C U87G U143A | 0.38 |
| U9A G10A C37U C90U | 0.02 |
| A43G A50G U52G U96A | 0 |
| U12C A79G A107U | 1.84 |
| U29C A30G A59U A77G | 1.84 |
| C103A C128A A141C | 1.08 |
| A67G U100A A129U A141G | 0.23 |
| A2G U46C G105C | 0.92 |
| U85C A92U U134C | 0.3 |
| A50U A136U U143C | 0.17 |
| C98U U112C A138G A142G | 0.3 |
| A31G U73C U96G | 0 |
| U62A U91C U102C U115C | 0 |
| U9C U100C A129C | 2.3 |
| A42U A78G U91C | 0.18 |
| U9C A59G A64U C145G | 0.56 |
| A65U A77U U108C C113A | 0.04 |
| A22U U47C U102C | 1.28 |
| A50U U73C A136G A142G G144A | 2.01 |
| A6G U45G U47A U104A A141G | 0 |
| G41A C71U U73C A79G G139C A140G A142G | 0.89 |

| Variant | self-cleavage |
| --- | --- |
| A43G A50G G88A A107G | 0 |
| A57G U130C A136G | 1.15 |
| C19A C131U A138U | 1.45 |
| A43G C71U A117G | 1.09 |
| U12C A57U U119C A138U | 0.31 |
| A77G U102C U112C A140G | 2.63 |
| U26C A31G U87C | 0.71 |
| G55A A59G A129G | 0.04 |
| U12G U47A A59U A129G | 1.18 |
| U13C G88A A141G | 0.1 |
| U12C U26A U87G | 0.58 |
| U20A A78G U112C A124U | 1.14 |
| A92G U96C A124G C131G | 0 |
| U47C G86A A136U A141G | 0.28 |
| A43G A65C U81A A141G | 0.04 |
| A6U U12G U26A U100C A121U | 0.98 |
| A30G A64G U134A | 0.3 |
| G8A C68U U102C C123U U143A | 0.19 |
| A30G G54A U132C C145A | 0.75 |
| A42G U96A A107G | 0.18 |
| U14A A31G U47A U109A | 1.31 |
| U47A A78G U96C U102A | 0 |
| A79U U81A U104C U108A | 1.96 |
| U9C U29C G55A A78G C133U A140U | 0.45 |

| Variant | self-cleavage |
| --- | --- |
| U9G U14C A42U U85C A117G | 0.21 |
| A2G U13A U115C | 0 |
| U1A A43U A57G U115C | 1.02 |
| C3U G72A A138G | 0.61 |
| G32A A57U U73A U102C A141G | 0.06 |
| G34A A77G G88A A124U | 0.11 |
| U39A U109C C118U | 0.85 |
| U12C C71U A94G | 0.12 |
| G53A A59U A138G | 0.47 |
| U46C A67G A78G | 0.48 |
| U13A U39A U73A A138G A140G | 1.21 |
| U9C C123U U130G | 1.6 |
| A42G A57G U112A A140U | 1.5 |
| A31G A59C A94U | 0.1 |
| A30G A43G U130A | 1.41 |
| U62C G97A U112C | 0.01 |
| U15C A64U A138G | 1.09 |
| U12C A43G A129C U130C | 1.28 |
| G82A G88U A107G A142G | 0.05 |
| A6G A42G U81C | 1.17 |
| U47C A67U A77U U104C | 0.21 |
| U14A U15C C17U | 0.84 |
| U1C U5C G8U U109C C110U U143C | 1.05 |
| A59G A140G U143A | 0.07 |

| Variant | self-cleavage |
| --- | --- |
| A22U U39C U46C A142G | 0.54 |
| U13C U73C A78C | 0.9 |
| A2U A22G A42G U73A | 1.86 |
| A30G A121U A138U | 1.06 |
| A69U A78G A129G U130C | 0 |
| A65G G82A U91A U143G | 0.02 |
| U62A U112C U115G | 0 |
| A6G U104C U130C | 0 |
| G21A U52A A94G U143C | 0.2 |
| U1C C3U A94U U119C | 0.29 |
| U20C A59G A124U A138U | 0.33 |
| U45C G74A U112A | 1.17 |
| U14A U45A A124G | 0.4 |
| A22U A78G A129G G137U A140U | 2.22 |
| A50G C128U A129G U143C | 1.15 |
| U9A U12C G36A G127A A138U | 1.27 |
| A30G U46C G72U U96A | 0.1 |
| U29C U45A A59G A69G | 0 |
| U14C U73A A142G | 1.43 |
| A6G U39C A43G U62C | 0 |
| A59G U62A A78G U102C A129U | 0 |
| U47G A67G A77G A79G | 1.31 |
| U14C A22G A77U | 1.05 |
| U1C U45C A129G A142U | 1.15 |

| Variant | self-cleavage |
| --- | --- |
| C18A U132C A140C | 2.04 |
| U29C A50G U130C | 1.41 |
| A22U A64G U81A | 0.34 |
| U62C U81A A117G | 0.04 |
| U39A A42G U62C U102C A136G A142U U143A | 0 |
| A94G U132C A141G | 0.54 |
| A92G C131G U143C | 0.13 |
| U13C A22U A42G U81C U112A C113U A138G | 1.67 |
| A6G A59G A94G | 0.57 |
| G41A U115A G127U | 1.23 |
| U20G U26A A94G C145U | 0.36 |
| G35U A77G A94G | 0.41 |
| A30G U45C A69G | 0.57 |
| U15C U87A A124G | 0.06 |
| U9G U15C C99U | 0.56 |
| A6G U9C U52C A57U A77U G86A G89U | 0 |
| U73C U81C U115A | 1.15 |
| G7A U52A U132C | 1.31 |
| C17A U20A A65G A141G | 0.06 |
| A57U U81A U112C | 0.12 |
| U9G A50U U96C | 0 |
| A64G G75C U112A A140G | 0.15 |
| U62C G97A U102C | 0.01 |
| U13G A24G C56U A59G | 0.09 |

| Variant | self-cleavage |
| --- | --- |
| U29A U96C C128G C146A | 0.16 |
| G7A U46C U62C U115C | 0 |
| A6C A31U A67U U115C A142G | 0.5 |
| U1C A2G U39C A124G A129U C131U | 1.31 |
| G36U A42G U45A | 0.97 |
| G36A A57U A79G | 0.1 |
| U9G C19U U26C | 0.93 |
| U39A G54U U112C | 0.94 |
| U26A C28U A64U | 0.42 |
| A78G A79G U87C G88A U112C U132C A136U | 0 |
| U12A U62C U132C | 0.18 |
| U29A G54U A69G U132C | 0.12 |
| A59G U102C A136G | 0.06 |
| U1C U91C A92U U115C | 0 |
| U20A G35U A69G A129G | 1.48 |
| G25C U91A A138U | 0.97 |
| U62C A67G A124U A140C | 0 |
| A42U U102A C116A | 1.99 |
| U9A U62C A67U U108C A141G | 0 |
| G97A C133G A138G | 0.49 |
| U13C U15C U109C | 1.2 |
| A65G A79U C95U | 0.07 |
| A22G G53A U96A | 0.02 |
| U9A G58U U85C U96A | 0.07 |

| Variant | self-cleavage |
| --- | --- |
| C18U U62C U87C | 0 |
| U9C A50U U73C U87C | 0 |
| A2G C56U U73C U115C | 0.82 |
| U20C C71U U104A A121G | 0.27 |
| A22G A107G U119A | 2.25 |
| U1C U14C C56A U102C A121G U134C | 0 |
| U23C A57U A64G A107G U112C A117U A138U | 0 |
| G4A U26A U52C U132C | 0.67 |
| U26C U46C A124G | 0.29 |
| U9C A129G U143C | 0.88 |
| A57G A69U G144A | 0.04 |
| G8C C71U U102A U104C | 1.24 |
| G48U A77G A94U A138G | 0.32 |
| A42G U73A U115C G144C C145U | 2.35 |
| A6U U15C U20C U134A | 1.08 |
| A50G U73A U81C C113U | 0.21 |
| U14C C98U C103U C133A | 0.39 |
| U14C C66A U102C | 0.04 |
| U45G U52C U143A | 0.33 |
| U23C U29C A117G | 0.24 |
| A2U A59G A117G | 0 |
| U13C A78G U115A A138G A141G | 1.15 |
| U12C G32A A142G | 1.53 |
